Structures can show the parent of a compound that is named as a salt. ± gives the standard deviation of the averaged measurements. Over roughly 2,000 compounds, “cell viability relative to DMSO control (compound alone)” has its median near 0.98; the lowest 2% begin near 0.23. This is one part of the list.

For this assay, the system named is PDC-DUC18828. Nature of the assay: cell viability relative to DMSO control (compound alone) (fraction); PDC-DUC18828 is a patient-derived cholangiocarcinoma cell line; higher = less growth inhibition. The conditions noted are these: 1 µM; 72 h. The protocol: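 Selleck Bioactive library screen in the patient-derived FGFR2-G3BP2 fusion-positive ICC cell line PDC-DUC18828 (500 cells/well). Each compound was tested at 1 uM alone, in triplicate, for 72 h. Viability was read by CellTiter-Glo and normalised to plate DMSO controls.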
`Cc1nc(N)sc1-c1ccnc(Nc2ccc(N3CCOCC3)cc2)n1`: the cell viability worked out at 0.798 ± 0.081. The result for `C[C@]12CC[C@@H]3c4ccc(O)cc4CC[C@H]3[C@@H]1C[C@@H](O)[C@@H]2O` [Estriol] reads 0.905 ± 0.014. `C[C@@H]1CN(CC(=O)Nc2ccc3c(c2)Cc2cccc(-c4cc(=O)cc(N5CCOCC5)o4)c2S3)C[C@H](C)O1` gave a cell viability of 0.95 ± 0.05. Then `CCC[C@H](NC(=O)[C@@H]1[C@H]2CCC[C@H]2CN1C(=O)[C@@H](NC(=O)[C@@H](NC(=O)c1cnccn1)C1CCCCC1)C(C)(C)C)C(=O)C(=O)NC1CC1` [Telaprevir (VX-950)], with 1.06 ± 0.032. In the case of `CCc1cccc2c3c([nH]c12)C(CC)(CC(=O)O)OCC3` (stereo not drawn) [Etodolac], the cell viability was 0.961 ± 0.044. Take `Cc1noc(NS(=O)(=O)c2ccc(N)cc2)c1C` [Sulfisoxazole]: the cell viability stood at 0.986 ± 0.028.

`CCOC(=O)[C@H](CCc1ccccc1)N[C@@H](C)C(=O)N1CCC[C@H]1C(=O)O` [Enalapril Maleate] registered a cell viability of 1.04 ± 0.031.

As to `CNC(=O)[C@H](Cc1ccccc1)NC(=O)[C@H](CC(C)C)[C@H](CSc1cccs1)C(=O)NO` [Batimastat (BB-94)], the cell viability worked out at 0.998 ± 0.028. In turn, `CC[C@@H]1/C=C(\C)C[C@H](C)C[C@H](OC)[C@H]2O[C@@](O)(C(=O)C(=O)N3CCCC[C@H]3C(=O)O[C@H](/C(C)=C/[C@@H]3CC[C@H](Cl)[C@H](OC)C3)[C@H](C)[C@@H](O)CC1=O)[C@H](C)C[C@@H]2OC` [Pimecrolimus] returned a cell viability of 1.03 ± 0.04. In turn, `Cc1cc(Nc2nc(N[C@@H](C)c3ncc(F)cn3)ncc2Cl)[nH]n1` showed a cell viability of 0.577 ± 0.047. `COC[C@H](NC(=O)c1cnc(C)s1)C(=O)N[C@@H](COC)C(=O)N[C@@H](Cc1ccccc1)C(=O)[C@@]1(C)CO1` [Oprozomib (ONX 0912)] returned a cell viability of 0.0181 ± 0.0015. For the compound `CCCCC(=O)N(Cc1ccc(-c2ccccc2-c2nnn[nH]2)cc1)[C@H](C(=O)O)C(C)C.CCOC(=O)[C@H](C)C[C@@H](Cc1ccc(-c2ccccc2)cc1)NC(=O)CCC(=O)O`, the cell viability turned out to be 0.926 ± 0.025. The result for `OC[C@H]1O[C@@H](O[C@@H]2[C@@H](CO)OC(O)(CO)[C@H]2O)[C@H](O)[C@@H](O)[C@H]1O` (mixture of isomers) [Lactulose] reads 1.02 ± 0.042; that for `O=C(O)CC1CC(c2ccccc2)=NO1` (stereo not drawn), 0.981 ± 0.086. Then `CN(C)[C@@H]1C(O)=C(C(N)=O)C(=O)[C@@]2(O)C(O)=C3C(=O)c4c(O)ccc(Cl)c4[C@@H](O)[C@H]3C[C@@H]12` [Demeclocycline HCl], with 1.01 ± 0.041.

As to `CCN(c1cc(-c2ccc(CN3CCOCC3)cc2)cc(C(=O)NCc2c(C)cc(C)[nH]c2=O)c1C)C1CCOCC1`, the cell viability is 0.901 ± 0.049. Regarding `Cn1c([N+](=O)[O-])cnc1COC(N)=O` [Ronidazole], the cell viability came to 1.012 ± 0.0073.

Regarding `CN(CCOc1ccc(CC2SC(=O)NC2=O)cc1)c1ccccn1` (stereo not drawn) [Rosiglitazone maleate], the cell viability amounted to 1.046 ± 0.0083. Compound `CN(CCOc1ccc(CC2SC(=O)NC2=O)cc1)c1ccccn1` (stereo not drawn) [Rosiglitazone HCl] came in with a cell viability of 1.05 ± 0.073. In turn, `CN(CCOc1ccc(CC2SC(=O)NC2=O)cc1)c1ccccn1` (stereo not drawn) [Rosiglitazone] yielded a cell viability of 0.977 ± 0.011. Then `COc1ccc(C[C@@H]2c3cc(OC)c(OC)cc3CC[N@+]2(C)CCC(=O)OCCCCCOC(=O)CC[N@@+]2(C)CCc3cc(OC)c(OC)cc3[C@H]2Cc2ccc(OC)c(OC)c2)cc1OC` [Cisatracurium Besylate], with 1.07 ± 0.028. Then `CCOC(=O)c1c(C)n(C)c2ccc(O)cc12` [Mecarbinate], with 1.06 ± 0.053; and `Fc1cc(-c2cccc3ncc(-c4cnn(C5CCNCC5)c4)nc23)cc(F)c1CN1CCOCC1`, with 1.01 ± 0.041; and `CC(N)C12CC3CC(CC(C3)C1)C2` (stereo not drawn) [Rimantadine], with 0.987 ± 0.051. On to `C[C@H](Oc1cc(-c2cnn(C3CCNCC3)c2)cnc1N)c1c(Cl)ccc(F)c1Cl` [(S)-crizotinib], for which the cell viability came to 0.899 ± 0.019. Then `Brc1c(NC2=NCCN2)ccc2nccnc12` [Brimonidine Tartrate], with 0.957 ± 0.041; and `CN(C)CCOC(=O)COc1ccc(Cl)cc1` [Meclofenoxate (Centrophenoxine) HCl], with 0.992 ± 0.067; and `NCc1c[nH]c(=S)n1[C@@H]1CCc2c(F)cc(F)cc2C1` [(R)-Nepicastat HCl], with 0.9045 ± 0.0088. The result for `Cc1ccc2c(Cl)cc(Cl)c(O)c2n1` [Chlorquinaldol] reads 0.943 ± 0.057. Turning to `N=C(N)N/N=C/c1c(Cl)cccc1Cl` [Guanabenz Acetate], the cell viability came out at 1.07 ± 0.041.

For the compound `CCNC(=O)C#Cc1ccc2c(C(=Nc3ccc(CN(C)C)cc3)c3ccccc3)c(O)[nH]c2c1`, the cell viability was 0.403 ± 0.024.

`CCCCOc1cc(C(=O)NCCN(CC)CC)c2ccccc2n1` [Dibucaine HCl] came in with a cell viability of 1.02 ± 0.024. In turn, `CCOC(=O)c1ccc(NC(=O)O[C@H]2[C@H](OC(=O)Nc3ccc4c(c3)OCO4)[C@@H](OC(=O)Nc3ccc4c(c3)OCO4)[C@@H](OC)O[C@@H]2CO)cc1` returned a cell viability of 0.935 ± 0.083. `O=C1CCc2cc(OCCCCc3nnnn3C3CCCCC3)ccc2N1` [Cilostazol] displayed a cell viability of 1.05 ± 0.039. The compound `N#C[C@@H]1C[C@@H]2C[C@@H]2N1C(=O)[C@@H](N)C12CC3CC(CC(O)(C3)C1)C2` [Saxagliptin] had a cell viability of 1.02 ± 0.034. `CCS(=O)(=O)CCn1c([N+](=O)[O-])cnc1C` [Tinidazole] showed a cell viability of 1.08 ± 0.053. As to `COc1cc(Nc2nc3ccccc3nc2NS(=O)(=O)c2ccc(NC(=O)c3ccc(C)c(OC)c3)cc2)cc(OC)c1`, the cell viability amounted to 0.925 ± 0.076. With `CCC1=C(C)CN(C(=O)NCCc2ccc(S(=O)(=O)NC(=O)N[C@H]3CC[C@H](C)CC3)cc2)C1=O` [Glimepiride], the cell viability came to 1.07 ± 0.022. `Cc1cc(C(O)=C2C(=O)C(=O)N(CCCN3CCOCC3)C2c2ccncc2)ccc1OCc1ccccc1` (stereo not drawn): the cell viability was 1.05 ± 0.054. As to `Nc1ncnc2c1c(-c1cnc3[nH]ccc3c1)nn2C1CCCC1`, the cell viability was determined as 0.363 ± 0.017. Then `CC(C)NCC(O)COc1cccc2ccccc12` (stereo not drawn) [Propranolol HCl], with 1.07 ± 0.016; and `Cc1nc(NC(=O)N2CCC[C@H]2C(N)=O)sc1-c1ccnc(C(C)(C)C(F)(F)F)c1`, with 0.967 ± 0.045; and `O=C(/C=C\n1cnc(-c2cc(C(F)(F)F)cc(C(F)(F)F)c2)n1)NNc1cnccn1`, with 0.508 ± 0.021.

Compound `CN(C)Cc1ccc(-c2nc3cccc4c3n2CCNC4=O)cc1` returned a cell viability of 1.05 ± 0.046. Turning to `Cc1[nH]c(/C=C2\C(=O)Nc3ccc(S(=O)(=O)N(C)c4cccc(Cl)c4)cc32)c(C)c1C(=O)N1CCN(C)CC1`, the cell viability is 0.964 ± 0.1.

Compound `CCC1C/C(=C\c2cccnc2)C(=O)/C(=C/c2cccnc2)C1` (stereo not drawn) registered a cell viability of 0.594 ± 0.048. `CC(C)C[C@H](NC(=O)[C@H]1O[C@@H]1C(=O)O)C(=O)NCCCCN=C(N)N` came in with a cell viability of 1.01 ± 0.047. `Oc1c2ccccc2c2c3c(cccc13)N=N2` returned a cell viability of 0.992 ± 0.013. Consider `COC(=O)[C@@H]1[C@H]2C[C@H]3c4[nH]c5ccccc5c4CCN3C[C@@H]2CC[C@@H]1O` [Yohimbine HCl], for which the cell viability was 1.01 ± 0.021. `C[C@@H]1O[C@@H](O[C@H]2[C@H](Oc3cc(O)c(C(=O)CCc4ccc(O)cc4)c(O)c3)O[C@H](CO)[C@@H](O)[C@@H]2O)[C@H](O)[C@H](O)[C@H]1O` [Naringin Dihydrochalcone]: the cell viability turned out to be 0.8827 ± 0.0073. The compound `CCCCNC(=O)NS(=O)(=O)c1ccc(C)cc1` [Tolbutamide] displayed a cell viability of 0.9 ± 0.014.

Turning to `CCCS(=O)(=O)Nc1ccc(F)c(C(=O)c2c[nH]c3ncc(-c4ccc(Cl)cc4)cc23)c1F` [Vemurafenib (PLX4032, RG7204)], the cell viability was found to be 0.989 ± 0.067. Consider `O=C(Nc1c(Cl)cncc1Cl)c1ccc(OC(F)F)c(OCC2CC2)c1` [Roflumilast], for which the cell viability was found to be 0.922 ± 0.026.

`CCOC(=O)OC(C)OC1=C(C(=O)Nc2ccccn2)N(C)S(=O)(=O)c2ccccc21` (stereo not drawn) [Ampiroxicam] yielded a cell viability of 0.984 ± 0.015. Take `Cc1cccc(-c2[nH]c(CNc3ccccc3F)nc2-c2ccc3ncnn3c2)n1`: the cell viability was 0.9 ± 0.075. The result for `O=S(=O)(O)CCS` [Mesna] reads 0.989 ± 0.038; that for `Cn1nccc1Nc1nccc(-c2ccn([C@H](CO)c3ccc(Cl)c(F)c3)c(=O)c2)n1`, 1 ± 0.028; that for `OCc1cc(C(O)CNCCCCCCOCCCCc2ccccc2)ccc1O` (stereo not drawn) [Salmeterol Xinafoate], 0.925 ± 0.061.

`CC(=O)OCC(=O)[C@@]12N=C(C)O[C@@H]1C[C@H]1[C@@H]3CCC4=CC(=O)C=C[C@]4(C)[C@H]3[C@@H](O)C[C@@]12C` [Deflazacort] yielded a cell viability of 0.913 ± 0.064. With `C[C@@H](CN1CC(=O)NC(=O)C1)N1CC(=O)NC(=O)C1` [Dexrazoxane HCl (ICRF-187, ADR-529)], the cell viability is 1.05 ± 0.028. Compound `Cc1nc2n(c(=O)c1CCN1CCC(c3noc4cc(F)ccc34)CC1)CCCC2` [Risperidone] displayed a cell viability of 1.09 ± 0.062. On to `CNCCC(Oc1ccc(C(F)(F)F)cc1)c1ccccc1` (stereo not drawn) [Fluoxetine HCl], for which the cell viability was 0.992 ± 0.013. Regarding `CCC(=O)O[C@]1(C(=O)CCl)[C@@H](C)C[C@H]2[C@@H]3C[C@H](F)C4=CC(=O)C=C[C@]4(C)[C@@]3(F)[C@@H](O)C[C@@]21C` [Halobetasol Propionate], the cell viability amounted to 0.927 ± 0.031.

With `CN(C)Cc1cccc(N/C(=C2\C(=O)Nc3cc(C(N)=O)ccc32)c2ccccc2)c1`, the cell viability is 0.993 ± 0.045. The result for `CCN1CC(CCN2CCOCC2)C(c2ccccc2)(c2ccccc2)C1=O` (stereo not drawn) [Doxapram HCl] reads 0.928 ± 0.019; that for `CCC(CC)CC1(C(=O)Nc2ccccc2SC(=O)C(C)C)CCCCC1`, 1.08 ± 0.097. Regarding `Cn1cc(-c2ccc3nnc(C(F)(F)c4ccc5ncccc5c4)n3n2)cn1`, the cell viability worked out at 0.994 ± 0.033. Regarding `c1ccc2[nH]c(-c3cscn3)nc2c1` [Thiabendazole], the cell viability came out at 1.03 ± 0.021. For `CNC(=O)Nc1ccc(-c2nc(N3CC4CCC(C3)O4)c3cnn(C4CCC5(CC4)OCCO5)c3n2)cc1`, the cell viability was 0.256 ± 0.018. Then `CN1CC2c3ccccc3Oc3ccc(Cl)cc3C2C1` (stereo not drawn) [Asenapine], with 0.9867 ± 0.0088; and `CCCCNc1ncc2c(-c3ccc(CN4CCN(C)CC4)cc3)cn([C@H]3CC[C@H](O)CC3)c2n1`, with 0.586 ± 0.006.

Regarding `COC1=C2C[C@@H](C)C[C@H](OC)[C@H](O)[C@@H](C)/C=C(\C)[C@H](OC(N)=O)[C@@H](OC)/C=C\C=C(/C)C(=O)NC(=CC1=O)C2=O` [Geldanamycin], the cell viability was 0.304 ± 0.003.

For the compound `COc1ccc(-c2cc(=O)c3c(O)cc(O[C@@H]4O[C@H](CO[C@@H]5O[C@@H](C)[C@H](O)[C@@H](O)[C@H]5O)[C@@H](O)[C@H](O)[C@H]4O)cc3o2)cc1O` [Diosmin], the cell viability came out at 0.926 ± 0.082.

(Values after the supplement of paper PMC9588766.)
